Results taken from the supplement of paper PMC4723716.
Over roughly 3,600 compounds, “viability index relative to DMSO control” has its median near 0.81; the lowest 2% begin near 0.13. The list shows a part of the results.

Tested on: Plasmodium falciparum NF54 stage V gametocytes
Assay: viability index relative to DMSO control (fraction); higher = less gametocyte killing
Conditions: 1.25 µM, incubation time: 72 h
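Further: 384-well serum-free SaLSSA: MitoTracker Red CMXRos staining with saponin lysis, high-content imaging, treated-well particle count divided by plate-mean count of DMSO wells.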

| Structure (SMILES) | viability index |
| --- | --- |
| CCCOC(=O)C1=C(C)NC2=C(C(=O)CC(c3ccc(OC)c(OC)c3)C2)C1c1cccc(C)c1 (centres undefined) | 0.61 |
| Cn1cc([N+](=O)[O-])c(C(=O)NN=Cc2c[nH]c3ccccc23)n1 | 1.14 |
| Oc1ccc(-c2ccccc2)cc1CN1CCCCCC1 | 0.264 |
| COc1cccc(NC(=O)c2sc3ncn(CC(=O)N4CCN(c5ccccn5)CC4)c(=O)c3c2C)c1 | 0.967 |
| CC(=NNC(=O)C(=Cc1ccc([N+](=O)[O-])cc1)NC(=O)c1ccccc1)c1ccccn1 | 0.661 |
| COc1ccc(C2SCCN2S(=O)(=O)c2cccc([N+](=O)[O-])c2)cc1OC (centres undefined) | 1.29 |
| COc1ccc(OC)c(C2CC(=O)C3=C(C2)NC(=O)CC3c2ccc(OC)c(OC)c2)c1 (centres undefined) | 0.747 |
| COc1ccc(OC)c(-c2ccc(O)c(CNCC3CC4C=CC3C43CC3)c2)c1 (centres undefined) | 0.317 |
| COc1ccc(Nc2nc(-c3cc4cc(OC)ccc4oc3=O)cs2)c(OC)c1 | 0.924 |
| Cc1cc(C(=O)N2CCOc3c(cc(-c4csc5ccccc45)cc3OCCc3ccccn3)C2)n(C)n1 | 0.365 |
| O=C(O)CSC(C(=O)Nc1ccc(Cl)cc1)c1ccccc1 (centres undefined) | 0.865 |
| CCc1nc2nc(C)cc(Nc3ccc(F)c(Cl)c3)n2n1 | 1.11 |
| CC[n+]1ccc(C=Cc2ccc(N(C)C)cc2)cc1 | 1.03 |
| CCOC(=O)c1ccc(-c2c(-c3cc(CC)c(OC)cc3O)noc2C)o1 | 0.857 |
| O=C(C1CC1)N1CCOc2c(cc(-c3csc4ccccc34)cc2OCCc2ccccn2)C1 | 0.423 |
| CSc1cccc(NC(=O)C2C3C=CC4(O3)C2C(=O)N(Cc2ccc(F)cc2)C4C(=O)NC2CCCC(C)C2C)c1 (centres undefined) | 1.22 |
| Cc1cc(C)cc(NC(=S)NNc2ccnc3cc(Cl)ccc23)c1 | 0.614 |
| Oc1c2c(nc3cc(-c4ccccc4)nn13)CCCC2 | 0.71 |
| O=C(Nc1ccccc1[N+](=O)[O-])C1CC1(c1ccccc1)c1ccccc1 (centres undefined) | 1.09 |
| CCCOC(=O)C1=C(C)NC2=C(C(=O)CC(c3ccc(OC)cc3)C2)C1c1cccc(Cl)c1Cl (centres undefined) | 0.679 |
| O=C(Nc1ccc(Cl)cc1)c1c2c(nc3ccccc13)-c1ccccc1CC2 | 0.522 |
| Cc1cc(C=C2Sc3ccccc3N2C)[n+](C)c2ccccc12 | 0.606 |
| CNC(=O)[C@@H]1C[C@@H](NCc2ccc(OC)cc2)CN1Cc1ccccc1 | 1.15 |

| Structure (SMILES) | viability index |
| --- | --- |
| COc1ccc(C=C2SC(=N)N(c3ccc4c(c3)OCO4)C2=O)cc1OC | 0.74 |
| COc1ccc(Br)cc1S(=O)(=O)N1CCCc2ccccc21 | 0.731 |
| CCC(C)(C)c1ccc(OCCOCC[n+]2ccccc2)c(C(C)(C)CC)c1 | 0.374 |
| CC1CC2(C)Oc3ccccc3CC2C(C)C1CNCCCN(C)C (centres undefined) | 0.294 |
| Fc1ccc(Nc2nc(NCc3ccccc3)c3ccccc3n2)cc1 | 0.883 |
| O=C1NCCN1CCNS(=O)(=O)c1cc(C(F)(F)F)cc(C(F)(F)F)c1 | 0.867 |
| CCOC(=O)c1c(S(=O)(=O)N2CCCC(C(=O)N3CCN(c4cccc(C)c4C)CC3)C2)c(C)n(C)c1C (centres undefined) | 0.699 |
| COc1ccc(-n2cnc3cc(NCc4nc5ccccc5n4C)ccc32)cc1 | 0.755 |
| OCCNCCNCc1ccc2[nH]c3ccccc3c2c1 | 0.687 |
| O=C(O)c1c[nH]c2cc(N3CCCCCC3)c(F)cc2c1=O | 1.05 |
| CCCCCCOc1ccc(NC(=O)c2cccs2)cc1 | 0.518 |
| Cc1cc(=O)oc2c1ccc1oc(C(=O)c3ccccc3)c(C)c12 | 1 |
| O=S(=O)(Nc1cc(Sc2nc[nH]n2)c(O)c2ccccc12)c1ccc(F)cc1 | 0.786 |
| O=C(c1ccc(-n2c(SCc3ccc(Cl)cc3)nc3ccccc3c2=O)cc1)N1CCOCC1 | 0.975 |
| CCNc1ncnc2sc(C(=O)NCc3csc(C)n3)c(C)c12 | 1.03 |
| Cc1ccc(C(=O)C(C)[n+]2ccc(N(C)C)cc2)cc1 (centres undefined) | 1.14 |
| COc1ccc(-c2c[n+](Cc3ccc(Cl)c(Cl)c3)c3n2CCC3)cc1 | 0.686 |
| COc1ccc(C2CC(c3cccs3)=NN2C(=O)CSc2nnc(CNC(=O)c3cccs3)n2-c2cc(C)ccc2C)cc1 (centres undefined) | 0.686 |
| O=C(NC1CC1)c1ccc(CSCc2ccccc2Cl)o1 | 0.813 |
| Cc1cc(I)ccc1N1C(=O)C2C3c4ccccc4C(CO)(c4ccccc43)C2C1=O (centres undefined) | 1.06 |
| ClC12CC3CC(C1)CC(n1nnc4ccccc41)(C3)C2 | 0.918 |
| Cc1ccc2c(C)nc(NC(=N)N)nc2c1 | 1.07 |
| COc1ccc(-[n+]2cc(-c3ccc(Br)cc3)n3c2SCCC3)cc1 | 1.06 |

| Structure (SMILES) | viability index |
| --- | --- |
| Cc1nc2ccc(-c3ccc4nc(C)[nH]c4c3)cc2[nH]1 | 0.906 |
| Cc1ccc(N=C2NC(=O)C(=Cc3cc(C)n(-c4cccc([N+](=O)[O-])c4)c3C)S2)cc1 | 0.494 |
| CCCc1nc2ccc(NC(=O)c3ccccc3F)cc2c(=O)n1Cc1ccc(-c2ccccc2)cc1 | 0.735 |
| CCC(CO)Nc1nccnc1-c1ccccc1Oc1ccccc1 (centres undefined) | 0.827 |
| OC1(c2ccc(Br)cc2)CCN(C2CCN(Cc3ccccc3)CC2)CC1 | 0.896 |
| CCCn1c(-c2cccc(Br)c2)nc2ccccc21 | 0.94 |
| CCOC(=O)C1=C(C)NC2=C(C(=O)CC(C)(C)C2)C1c1ccc(Cl)cc1 (centres undefined) | 0.659 |
| COc1ccc(-c2cn3c([n+]2-c2ccccc2)SCC3)cc1 | 1.23 |
| Cc1ccc(C(=O)Nc2ccc(-c3nc4ccc(NC(=O)c5ccc(C)cc5)cc4[nH]3)cc2)cc1 | 1.39 |
| CCCOC(=O)C1=C(C)NC2=C(C(=O)CC(c3ccc(OC)c(OC)c3)C2)C1c1cccc(Cl)c1Cl (centres undefined) | 0.506 |
| Cc1ccccc1Cn1c(=N)n(CC(O)c2ccc(Cl)c(Cl)c2)c2ccccc21 (centres undefined) | 0.291 |
| CC[n+]1c(C=C2Sc3cc(C)ccc3N2CCO)ccc2ccccc21 | 0.807 |
| Cc1ccccc1Nc1sc(C(=O)c2ccc([N+](=O)[O-])cc2)c(N)c1C(=O)Nc1ccccc1 | 0.968 |
| C=CC[n+]1c(C=C2C=CN(C)C=C2)sc2ccccc21 | 1.1 |
| CCNc1nc(OC)nc(Oc2ccc(=O)n(-c3ccccc3)n2)n1 | 0.591 |
| CN(C)CCCNc1ncnc2c1[nH]c1ccc(F)cc12 | 0.991 |
| C=CCn1cc(C=NNc2nc3ccccc3[nH]2)c2ccccc21 | 0.49 |
| CC(C)CN1C(=O)c2ccccc2C(C(=O)Nc2ccc(CN3CCC(C)CC3)cc2)C1c1cccs1 (centres undefined) | 0.321 |
| CCC(CO)NCC(O)Cn1c2ccc(Br)cc2c2cc(Br)ccc21 (centres undefined) | 0.564 |
| CC[n+]1c(C=C2C=Cc3cc(C)ccc3N2C)ccc2cc(C)ccc21 | 0.555 |
| Cc1cccc(Nc2c3c(c(C#N)c4nc5ccccc5n24)CCC3)c1 | 0.71 |
| O=C(Nc1ccc(-c2nc3ccccc3[nH]2)cc1)c1ccc(Cl)c(Cl)c1 | 1.03 |
| Cc1ccc(S(=O)(=O)N=C2C=C(Sc3nc4ccccc4[nH]3)C(=O)c3ccccc32)cc1 | 0.247 |

| Structure (SMILES) | viability index |
| --- | --- |
| COc1cccc(OC)c1C(=O)Nn1c(-c2cccc(C)c2)nc2ccccc2c1=O | 0.762 |
| CCOc1ccc(C(=O)C(C)[n+]2cc(-c3ccc(Cl)cc3)n3c2CCC3)cc1 (centres undefined) | 0.812 |
| Cc1ccc(C=Cc2ccc(N(C)C)cc2)[n+](C)c1 | 0.77 |
| COCCn1c(=S)[nH]c2cc(C(=O)NCCc3ccc(S(N)(=O)=O)cc3)ccc2c1=O | 0.936 |
| Cc1cccc(OCC(O)CN2CCN(CC(=O)c3ccc(Br)cc3)CC2)c1 (centres undefined) | 0.739 |
| C=CCOc1ccc(C2C(C(=O)OCC)=C(C)N=c3sc(=Cc4ccccc4O)c(=O)n32)cc1OCC (centres undefined) | 0.766 |
| C[N+]1(CCOC(=O)CCC(=O)OCC[N+]2(C)CCCCCC2)CCCCCC1 | 0.996 |
| Cc1cc(C)cc(NC(=S)NCCO)c1 | 0.78 |
| CCOC(=O)C1=C(C)NC2=C(C(=O)C(C(=O)OCC)C(c3ccccc3OC)C2)C1c1sccc1C (centres undefined) | 0.544 |
| COc1cccc(CN2CCC(O)(c3ccc4oc(C(=O)Nc5ccc(Cl)cc5)cc4c3)CC2)c1 | 1.07 |
| CCOC(=O)C1=C(C)NC2=C(C(=O)CC(c3ccc(OC)c(OC)c3)C2)C1c1ccccc1OC (centres undefined) | 0.68 |
| CCOC(=O)c1cccc(NC(=O)CCn2c(-c3ccc(F)cc3)cc(C(=O)OCC)c2C)c1 | 0.888 |
| Clc1ccc(-c2c[n+](Cc3ccccc3Cl)c3n2CCC3)cc1Cl | 1.11 |
| CCCCN(C)Cc1cc(-c2cccc(OC)n2)ccc1O | 0.625 |
| CN(C)c1ccc(C=C2SC(=N)N(c3nccs3)C2=O)cc1 | 0.775 |
| CCCCCc1ccc(OCCCC[n+]2cccc(C)c2C)c(CCCCC)c1 | 0.521 |
| CC1(C)CC(=O)c2cc(-c3ccc(Br)cc3)n(-c3ccccc3F)c2C1 | 0.634 |
| O=C(Nc1ccc(Cl)c(Cl)c1)Nc1cc(C(=O)NCCCN2CCCCCC2)ccc1Cl | 0.867 |
| COc1ccc(C2=C(c3ccc(OC)cc3)C3(c4ccccc4)C(=O)C2(c2ccccc2)C2C(=O)N(c4ccc(F)cc4)C(=O)C23)cc1 (centres undefined) | 0.864 |
| Cc1cc(C)c(S(=O)(=O)NCc2ccc(Cl)cc2)c(C)c1 | 0.98 |
